± gives the standard deviation of the averaged measurements. This is one part of the list.

The assay deals with PfAP2-LT AP2 domain (GST-tagged). Description: gcPBM binding intensity (ln(normalized median fluorescence intensity)); higher = stronger DNA binding. Summed up: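 GST-tagged P. falciparum DNA-binding domains, expressed in E. coli (about 25 μg on average), were applied for 1 h to an Agilent 4 × 180k array of primer-extended double-stranded 36-bp intergenic genomic probes plus negative controls. The binding buffer was 1× PBS with 1% milk, 0.2 mg/ml BSA, 0.5% salmon testes DNA and 0.03% Triton X-100. Bound protein was detected with Alexa488 anti-GST antibody and scanned at 488 nm. Binding intensity is the highest Masliner-normalised natural-log median intensity across replicate spots of either probe orientation.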
For the sequence “GTATTTTGCATAAATGCATGTAAATATATACCTACC [TGCATGCA_site957]”, the “gcPBM binding intensity (ln)” value came to 8.8 ± 0.33.
As to “TATTTGGGTATTTTTACACACATTAAAATATATATA [CACACA_site5800]”, the “gcPBM binding intensity (ln)” value was 8.69 ± 0.39.
For the sequence “GTAATAAAAAATTAATGTACTTTATATAATATATTA [XGTACX_site5935]”, the “gcPBM binding intensity (ln)” value was 8.38 ± 0.54.
With “TTTTTGTATTCTCCGGACTACATTATGTTGTAAATG [CACACA_negctrl_site691]” the figure was 9.14 ± 0.46; with “TCTAATTTAAAATACACACACATATCTATAATATAT [CACACA_site7029]”, 9.19 ± 0.33.
“GTATAAAAATTTAGGAGTACAATATATTTATAATAT [XGTACX_site2127]”: the “gcPBM binding intensity (ln)” value was determined as 8.66 ± 0.44.
With “TATTGTATAAAAATAACATGCAATCCTTATACTGCT [TGCATGCA_site345]” the figure was 8.59 ± 0.49; with “TGTACAGTAAATACAACACACATTTGTATAAATATA [CACACA_site4705]”, 9.32 ± 0.41; with “TAATATATAAAAAGATGTACTTTTGCAAGTTCCTTT [XGTACX_site8519]”, 8.54 ± 0.47.
For the sequence “GGACTTTATAAAAATGGTACACGCAATTCTATAATC [XGTACX_site6515]”, the “gcPBM binding intensity (ln)” value is 8.75 ± 0.51.
Take “ATATATATATATGTATGTACGTATGTATGTATGAAT [XGTACX_site4857]”: the “gcPBM binding intensity (ln)” value came to 9.34 ± 0.23.
The same measure for “GGTACATACAAACACACACACAAAAAAAAAAAAATA [CACACA_site1577]”: 9.65 ± 0.4; for “CCATATGATATATATTGTACATTATATATTATTTCT [XGTACX_site1697]”: 8.75 ± 0.45.
The same measure for “TATGTTGTTTATTTAGTGCATATTTAAATATTATAA [GTGCAC_site9601]”: 8.68 ± 0.34; for “AATGACATTCTTACACGTACAAAATAAAAAATAAAA [XGTACX_site6932]”: 8.75 ± 0.47.
The same measure for “TATATATTATATTCATGTACGTAAAAATTTTGAATA [XGTACX_site6734]”: 8.46 ± 0.38; for “ATTTATTTTATAATATATAAATGATATATCTTATTA [CACACA_negctrl_site66]”: 8.39 ± 0.34; for “GTAATCCACAAACACACACACATACACATATATATA [CACACA_site2728]”: 9.98 ± 0.19.
With “AAAAAAACAACATGCACACGCACACCCAAAAAAAGC [CACACA_site72]”, the “gcPBM binding intensity (ln)” value worked out at 9.84 ± 0.32.
With “ATCATTTTTAATAAATGTACAAGTTTTAAAAAAAAA [XGTACX_site7340]”, the “gcPBM binding intensity (ln)” value turned out to be 8.34 ± 0.47.
The same measure for “ATATATTACAATATATGTACTTAATTTGCTTAAATA [XGTACX_site7912]”: 8.6 ± 0.52.
The same measure for “AGAGGAAAAATAAAAGGAAAAAAGAAAATAATATTG [CACACA_negctrl_site852]”: 8.57 ± 0.59; for “ATAATATTTTAGAGCAGTACACTTTTATATTTATTG [XGTACX_site5728]”: 8.81 ± 0.42.
With “TAAAACAGAATGAGGAGTACAAAAAGAAGAAAAGGG [XGTACX_site1246]” the figure was 9.09 ± 0.57; with “AAAATAAATATTACATGTACATATATATATATATAT [XGTACX_site8492]”, 9.59 ± 0.23.
With “GGTAGGTGAATATATACACACATATATTATATATAT [CACACA_site1984]”, the “gcPBM binding intensity (ln)” value amounted to 9.26 ± 0.42.
With “TACACATGTTTAAAATGTACGTTTTATAACACACAC [XGTACX_site8229]”, the “gcPBM binding intensity (ln)” value is 9.29 ± 0.28.
In the case of “AAAAAAAATTAAGCATGTATAAATATATATATATAT [CACACA_negctrl_site1540]”, the “gcPBM binding intensity (ln)” value is 9.12 ± 0.28.
With “TTTTACAAGTATTGATAAATAAGAAATATATAAAAT [CACACA_negctrl_site529]” the figure was 8.4 ± 0.48.
With “GTGTATTTTGTGCGCACACACATGCAAAAAGAAATA [CACACA_site6660]” the figure was 9.67 ± 0.37; with “TAACACATAAATAAATATATACATATATATAAAATA [CACACA_negctrl_site375]”, 8.81 ± 0.46; with “TTTGTGCCTATAAATTAACACACAGAAATATATAGA [CACACA_site8175]”, 9.06 ± 0.28.
With “AAAAACTTATATGATACACACGATAAACAAAATAAA [CACACA_site1039]” the figure was 8.99 ± 0.38; with “ATTCTTTTAAACAGTACACACACACCGATATATATA [CACACA_site8213]”, 9.55 ± 0.3.
Consider “AATATATATATATATACATGCATATATTCCTTCCTT [TGCATGCA_site890]”, for which the “gcPBM binding intensity (ln)” value was 9.28 ± 0.21.
With “AATATATCATAATGATGTACAAGTAAAACCGTTACA [XGTACX_site4280]” the figure was 8.94 ± 0.4; with “GATCTATATATCATTACACACTTGAATTACTTAAAA [CACACA_site21]”, 8.65 ± 0.35.
On to “CAAAAATACATTATAATAATATGCACAATAATAAAT [XGTACX_negctrl_site263]”, for which the “gcPBM binding intensity (ln)” value is 8.95 ± 0.38.
The same measure for “ATAAAATAAAATTGGTGTACTTTTGATAAAATAAAA [XGTACX_site4264]”: 8.46 ± 0.53; for “TTTTTTTTTTTTATTTGTACACATTTTCATATTTTT [XGTACX_site4406]”: 8.92 ± 0.54; for “TATATTTACTCTAAGTGTACATATTATTTTATAATA [XGTACX_site2046]”: 8.55 ± 0.47.
With “TATATATATATGTGCACACATAAAGATATTATTTTT [CACACA_site3733]” the figure was 9.67 ± 0.34.
The same measure for “AAAAGTAAAAAAAGCACACACGAAAAAAAATAAAAA [CACACA_site5264]”: 9.15 ± 0.55.
As to “TCCATAAATAATTGTAGTACACATACTATGTGACAT [XGTACX_site7268]”, the “gcPBM binding intensity (ln)” value came out at 8.88 ± 0.36.
The same measure for “TATTAAAAAAAAAAATAAAAAAATAAAATAAAATAA [CACACA_negctrl_site580]”: 8.35 ± 0.56; for “TATTTATTTATAAATGCATGTCGCTCTTTTTATTAC [TGCATGCA_site626]”: 9.01 ± 0.4.
With “ATATATATATATATGTGTACATATAAGATAGAAGAA [XGTACX_site3198]” the figure was 9.37 ± 0.4; with “TTATGCATAAAAGGTGGTACTCCGTATATACATTCT [XGTACX_site4354]”, 8.87 ± 0.42; with “AACTATAAAAGTTTTACACACTGTTTTTAAATAATG [CACACA_site7686]”, 8.67 ± 0.44.
The same measure for “ATTATTATAGATATAACACACATAATTACATACTTA [CACACA_site6837]”: 8.8 ± 0.4.
Turning to “TTTCTTTGTATTTATAGTACATATTTTAATAACTGC [XGTACX_site6673]”, the “gcPBM binding intensity (ln)” value stood at 8.76 ± 0.54.
With “ATAATATTTTATTATACATGCAAATTATTATATATA [TGCATGCA_site40]” the figure was 8.46 ± 0.45; with “TAAAAATTAAAAAGGGTGCAAAAAAAAAAAAAAAAA [GTGCAC_site9733]”, 8.66 ± 0.53.
The same measure for “TATTAATTATAAGATGCATGTGCAAAAATATGTTCC [TGCATGCA_site51]”: 8.91 ± 0.33; for “GATTAAAATCAAAGGTGTACGCACAAATAAGTCCCA [XGTACX_site4360]”: 8.98 ± 0.38; for “CACCCTTTGTTTTAGAGTACATATGTATATACGTAA [XGTACX_site7964]”: 8.75 ± 0.45.
For the sequence “TATATATATTTATGTACACACATATATACCTTTCAT [CACACA_site5479]”, the “gcPBM binding intensity (ln)” value was determined as 9.23 ± 0.37.
As to “TTTCCGGTAATATGGAGATATATGTGGGTTTTTTTT [GTGCAC_negctrl_site374]”, the “gcPBM binding intensity (ln)” value turned out to be 8.99 ± 0.3.
The same measure for “ACAAAATTTACAAAATGTACAAAGTATGTGTTTTAT [XGTACX_site6462]”: 8.82 ± 0.38; for “AGAAAAAAGAGGGATACACACAAACATATATTTATA [CACACA_site7122]”: 9.13 ± 0.45.
On to “ATATTTTTTTTTTTCACACACATTTATATTGTATTA [CACACA_site5695]”, for which the “gcPBM binding intensity (ln)” value turned out to be 9.4 ± 0.5.
Turning to “TATTAAAATATTCTCACACACCAAAATATGTATGTA [CACACA_site6565]”, the “gcPBM binding intensity (ln)” value is 8.88 ± 0.42.
With “AAAAAAAAAAAAAAAAAAAGAAAAGAAAATAGGGTT [GTGCAC_negctrl_site421]” the figure was 8.58 ± 0.58; with “ATTATATTAATTTATAGTACAATATTTATATATATG [XGTACX_site4668]”, 8.59 ± 0.42; with “TATATATTACTTTTTTGTACGAATTTTACAACTACG [XGTACX_site3473]”, 8.88 ± 0.61.
Turning to “TTATTATTATGATTATTATGATGATTATACAACTGT [TGCATGCA_negctrl_site241]”, the “gcPBM binding intensity (ln)” value was determined as 8.85 ± 0.35.
Turning to “AATATACATAACAAGGTGCAAAAAATATTGTTCATA [GTGCAC_site9499]”, the “gcPBM binding intensity (ln)” value was 9.13 ± 0.45.
With “AGGAGGAACAAACAAAACAATAAAAATTATAATAAA [GTGCAC_negctrl_site206]” the figure was 8.78 ± 0.64; with “AAAAGACATTTTTTTTTATAAATACACACGTACGTG [TGCATGCA_negctrl_site281]”, 8.87 ± 0.38; with “TTCAAAGACACAATCACACACATACATAAATATACA [CACACA_site687]”, 9.44 ± 0.29.
The same measure for TTCCAAGAAATAATAGTGCATTATTCATTTTAATAA: 8.32 ± 0.43; for “ATATTATAAATTATAGGTACACACAAAAAAAAAAAG [XGTACX_site2637]”: 9.04 ± 0.52.
The same measure for “AAATATATTGCATATATACACACGTATATATATTAA [CACACA_site2759]”: 8.87 ± 0.3.
For the sequence “ATATCAAGCTATGAGAAAAAAAAAAAGAAAAAAAAA [CACACA_negctrl_site1370]”, the “gcPBM binding intensity (ln)” value was 8.45 ± 0.61.
The same measure for “AAGTTTTCTTAAAGATGTACTTTTTAAAAATAAAAT [XGTACX_site3063]”: 8.06 ± 0.4; for “TGATTCTTTTCAAAGTGTACAGTAATTTTTATGTAA [XGTACX_site8452]”: 8.45 ± 0.47.
With “TATATAATTCAAAAATGTACATGAAATATAAATATT [XGTACX_site7984]” the figure was 8.71 ± 0.45; with “TCTTCAAAGACACAATCACACACATACATAAATATA [CACACA_site8128]”, 9.29 ± 0.34.
With “AATACGTTTCAAAAATGTACACATATATCATAAATA [XGTACX_site8962]” the figure was 8.7 ± 0.41; with “ATCAAAAATGTTATATATATATATATATATATATAT [TGCATGCA_negctrl_site71]”, 9.89 ± 0.11.
Take “GCCATTAATTTATACACACACATTATAACTTTTTAT [CACACA_site6492]”: the “gcPBM binding intensity (ln)” value worked out at 9.36 ± 0.42.
Regarding “TTAAATAAAAAAATAACACACATATAAATCTATATG [CACACA_site7482]”, the “gcPBM binding intensity (ln)” value came out at 8.68 ± 0.38.
With “TATCAGCAATGGAAAACATGCAAAAAATTAATATAT [TGCATGCA_site623]” the figure was 8.9 ± 0.42.
The same measure for “TATAGCTTTCATTATACACACATCAAAAATTTAAAT [CACACA_site227]”: 8.73 ± 0.42; for “AGTAATAAATTTTATACATGCATAAAAAAAAAAAAA [TGCATGCA_site661]”: 8.69 ± 0.46.
Turning to “TTAAAAATCATTTAAGAACACACAAATATTTCCATT [CACACA_site8418]”, the “gcPBM binding intensity (ln)” value is 8.56 ± 0.42.
With “AACTTGTATTTATACACACACACACTAGCTTTTTTT [CACACA_site5132]” the figure was 9.75 ± 0.26; with “AGAATTAAAAACAGTTGTACAAAAAGTTGTATAAAT [XGTACX_site411]”, 9.07 ± 0.56.

The values above are taken from the supplement of paper PMC11417369.
